From article PMC7819943, “Rice protein-binding microarrays: a tool to detect cis-acting elements near promoter regions in rice”
The other results are listed elsewhere or left out.

Each sequence was assayed against T1, OsWOX13 (Oryza sativa, UniProt Q5QMM3 1-267) (assay: protein-binding microarray (RPBM); PBS, 2% BSA, 51.3 ng/ul salmon testes DNA, 50 uM zinc acetate, 200 nM TF, 25 C, 1 h; high values mean tight binding). Details: protein: recombinant; tags: N-terminal polyhistidine and DsRed monomer fusion (pET32a); label: CyDye5-dUTP incorporated in the synthesized complementary strand; 3' TTTTT single-stranded linker to array surface; dsDNA, one strand shown.
T1 sequence: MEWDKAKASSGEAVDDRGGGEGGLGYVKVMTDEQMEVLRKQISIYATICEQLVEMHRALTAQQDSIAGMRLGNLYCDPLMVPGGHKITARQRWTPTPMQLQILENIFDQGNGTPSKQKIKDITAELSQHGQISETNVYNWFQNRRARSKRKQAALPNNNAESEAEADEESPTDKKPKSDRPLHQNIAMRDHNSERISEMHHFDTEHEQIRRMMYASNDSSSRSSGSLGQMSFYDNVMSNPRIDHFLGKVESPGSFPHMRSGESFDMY
In short: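 Ni–NTA purification followed expression in E. coli BL21-CodonPlus of transcription factors fused N-terminally to a polyhistidine tag and DsRed. At 200 nM in PBS with 2% BSA, salmon testes DNA and 50 µM zinc acetate, the protein was incubated for 1 h at 25 °C with a custom Agilent array that had been primer-extended with Cy5-dUTP and blocked with 2% BSA. After washing, the array was read on an Axon 4000B scanner. The binding signal is per-feature fluorescence intensity in arbitrary units.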
For “AGAGCTAAATTGCACCGGTTTTAATAGTTAGAGGGTTATGCGGAGTCACCTAGTGCAG”, the binding signal was 4540 fluorescence intensity (a.u.).
For “AAGCATCAATTCGTTGCCTGATTAGTACAACACTGTTGTGCGGAGTCACCTAGTGCAG”, the binding signal was 5420 fluorescence intensity (a.u.).
“TAATCATTGAATGGTTGAATTACTATTCTGTGGATGAGTCCGGAGTCACCTAGTGCAG” was tested, and the binding signal was 4240 fluorescence intensity (a.u.).
“TTCTGAATTGATCTAATTATGGCATAAGTGCGAGTTATTGCGGAGTCACCTAGTGCAG” was tested, and the binding signal was 26900 fluorescence intensity (a.u.).
In the case of “CCCAGATTGGAAATCACATGAAAACAACTATGACTTTCCTCGGAGTCACCTAGTGCAG”, the binding signal is reported as 40900 fluorescence intensity (a.u.).
For “CGTGAATGAATATCTATCTGTATGGTCTACTCCCTACGTCCGGAGTCACCTAGTGCAG”, the binding signal was 5020 fluorescence intensity (a.u.).
With “TTGCTGATTTAGAATCATGTGTATGAACTTCCGTATGCTCCGGAGTCACCTAGTGCAG” the binding signal was 16500 fluorescence intensity (a.u.).
In the case of “CGGTCAATCATCTTCACCAATTTGGGCGTTCACGCGGTTGCGGAGTCACCTAGTGCAG”, the binding signal is reported as 30800 fluorescence intensity (a.u.).
For “AATTAATAATTGCAATAGTTAGGTTATGAAGACTTCAGAGCGGAGTCACCTAGTGCAG”, the binding signal was 15300 fluorescence intensity (a.u.).
In the case of “GAGGCGAGTGGGAGGGTGGGAGGGAGGGATGAAAGAGATGCGGAGTCACCTAGTGCAG”, the binding signal is reported as 4480 fluorescence intensity (a.u.).
With “TTTTAATTACTGATCTTCTTACAATTGCTTTTATGCTGTCCGGAGTCACCTAGTGCAG” the binding signal was 19700 fluorescence intensity (a.u.).
With “ATTAATTTGCTTACCGTCAGTGTCTCGACTCTTGACTACCCGGAGTCACCTAGTGCAG” the binding signal was 28000 fluorescence intensity (a.u.).
“TTCAGGAGTTCTGGTAATTGAGAAAACGAGACAGCATCATCGGAGTCACCTAGTGCAG” was tested, and the binding signal was 4910 fluorescence intensity (a.u.).
“GAATGAATTGATTTGTTGTGTAACTAACATAGTGTGAGGTCGGAGTCACCTAGTGCAG” was tested, and the binding signal was 38100 fluorescence intensity (a.u.).
For “TGCTTTATTATTTGATTGATTGATCACTTGTTGGATGGGACGGAGTCACCTAGTGCAG”, the binding signal was 64200 fluorescence intensity (a.u.).
“TGGTTCTAAATTGGCCTCCAACCAAATACAACTCTACTCTCGGAGTCACCTAGTGCAG” was tested, and the binding signal was 3840 fluorescence intensity (a.u.).
“GGCTAATTCACATTAGCTCAAAATTAGCCTACTTGTTTGGCGGAGTCACCTAGTGCAG” was tested, and the binding signal was 4200 fluorescence intensity (a.u.).
In the case of “ATAAATTAATCCAGGCGTGATCTCCCGGCGCCCGCACGCGCGGAGTCACCTAGTGCAG”, the binding signal is reported as 7300 fluorescence intensity (a.u.).
In the case of “CCTAATTGCAGCTCATGATTTTCTAACAAAATATATATCCCGGAGTCACCTAGTGCAG”, the binding signal is reported as 26200 fluorescence intensity (a.u.).
With “GGTTAACTTTGATTCACATTCCAACTCATCCATTTTCTAACGGAGTCACCTAGTGCAG” the binding signal was 3390 fluorescence intensity (a.u.).
With “ATATTTTCTAATTTTCAATTTTCATTTGCACACACTTCTGCGGAGTCACCTAGTGCAG” the binding signal was 5390 fluorescence intensity (a.u.).
In the case of “ATTAATTAAGTTACTGTGTTACTCCTAGCTACTCCTCCGTCGGAGTCACCTAGTGCAG”, the binding signal is reported as 22600 fluorescence intensity (a.u.).
“TCGTTTCCGTCAACTTAATTTGAATTCGCTACAGATGCTTCGGAGTCACCTAGTGCAG” was tested, and the binding signal was 4650 fluorescence intensity (a.u.).
“AACTGATTAGTGATTACACTACACATGAAACTGAGAAAAGCGGAGTCACCTAGTGCAG” was tested, and the binding signal was 39300 fluorescence intensity (a.u.).
With “GCTAGGAGCATATAATTGGATGTACACAATCCACCCACACCGGAGTCACCTAGTGCAG” the binding signal was 3760 fluorescence intensity (a.u.).
In the case of “GTCGCCCTGTCACAATCAATCGTCCATTGAGGATAAAGCGCGGAGTCACCTAGTGCAG”, the binding signal is reported as 8000 fluorescence intensity (a.u.).
With “GATAATTTCATAAATTTCGACCATCATTACAAAATCAGTTCGGAGTCACCTAGTGCAG” the binding signal was 22200 fluorescence intensity (a.u.).
With “ACTTAAAATTATCTGATTTAGGCCTTGTTTAGTTTAGGGGCGGAGTCACCTAGTGCAG” the binding signal was 13300 fluorescence intensity (a.u.).
For “GGATGACTAGAGTATTAGATTAGATATAAATGATTTAGAACGGAGTCACCTAGTGCAG”, the binding signal was 9640 fluorescence intensity (a.u.).
“CTTAACTTATGTTTTCTTGTTCTTGCTTCCTTGTCAGTAACGGAGTCACCTAGTGCAG” was tested, and the binding signal was 3330 fluorescence intensity (a.u.).
In the case of “GTAATGATAATATTGATTCCTAGTAGTTTATATTACTGATCGGAGTCACCTAGTGCAG”, the binding signal is reported as 5870 fluorescence intensity (a.u.).
With “ATAGATTGAATAATCACAGAACATGTGTACATATAGACATCGGAGTCACCTAGTGCAG” the binding signal was 43000 fluorescence intensity (a.u.).
In the case of “CCTAAACAGGACCTAAACAAATTCCTAACTACTCTAGCTACGGAGTCACCTAGTGCAG”, the binding signal is reported as 17700 fluorescence intensity (a.u.).
With “ATAATAATTAATCAATTCATTATGCACTAATGATTACCGCCGGAGTCACCTAGTGCAG” the binding signal was 41700 fluorescence intensity (a.u.).
With “GAACAAATTATAGTTATCAAATGAACAAATCCATGTATATCGGAGTCACCTAGTGCAG” the binding signal was 8230 fluorescence intensity (a.u.).
For “GTTCAATTTTGTCATAATCGGCTGCTTCTTCGCTTCAATTCGGAGTCACCTAGTGCAG”, the binding signal was 3780 fluorescence intensity (a.u.).
“TAATCTAATCATCGGCCAATATAACTGCACAATGAATCCACGGAGTCACCTAGTGCAG” was tested, and the binding signal was 7130 fluorescence intensity (a.u.).
For “CGATCGTTTAATTAATTAGTAATTACACACTCGATCGTCCCGGAGTCACCTAGTGCAG”, the binding signal was 35500 fluorescence intensity (a.u.).
In the case of “AAGTTAAATTGACAATCCTACCTGCTCGTCAAATTTCAACCGGAGTCACCTAGTGCAG”, the binding signal is reported as 27500 fluorescence intensity (a.u.).
With “CATGGAAATTGGCCTTTTGATATATTAATTGGTAGCGATCCGGAGTCACCTAGTGCAG” the binding signal was 22900 fluorescence intensity (a.u.).
In the case of “CTGACTGGCACGCCCGTATCTCATCAACCTTTGGACCTGCCGGAGTCACCTAGTGCAG”, the binding signal is reported as 3810 fluorescence intensity (a.u.).
With “TAGCCTTTGATAGACATAAAGATTCGTGCAACATTATCGGCGGAGTCACCTAGTGCAG” the binding signal was 11700 fluorescence intensity (a.u.).
In the case of “GATAAATTAACCGGCAGTGGTACGACACAATGGATAGCCCCGGAGTCACCTAGTGCAG”, the binding signal is reported as 21100 fluorescence intensity (a.u.).
“CTATTGACAAAACGAAACTGTTGACTTGTGAGAAAGCGTCCGGAGTCACCTAGTGCAG” was tested, and the binding signal was 7580 fluorescence intensity (a.u.).
With “ATAATATTTAATATTTAATTAATTATGTGCTAATAAATCGCGGAGTCACCTAGTGCAG” the binding signal was 14300 fluorescence intensity (a.u.).
With “TTATTATAAATTATCTTATCAATAAAGAAACTAACTTATACGGAGTCACCTAGTGCAG” the binding signal was 4710 fluorescence intensity (a.u.).
In the case of “GTAATTTGTTTTGTTATTAGTCTACGTTTAATACTTCAAGCGGAGTCACCTAGTGCAG”, the binding signal is reported as 3250 fluorescence intensity (a.u.).
With “CGTAACGGAATTAATACTACTTAGAAATCTCACCATTTCGCGGAGTCACCTAGTGCAG” the binding signal was 7740 fluorescence intensity (a.u.).
With “CTTCGCTAAAATAGATTAATTCCCGGGCAGTGTGTATGCTCGGAGTCACCTAGTGCAG” the binding signal was 4480 fluorescence intensity (a.u.).
In the case of “GCCATAAAGGAAAACTCAATTAATTATCTAAAGTGTCAAGCGGAGTCACCTAGTGCAG”, the binding signal is reported as 4740 fluorescence intensity (a.u.).
With “ATTAGGTATGATTTAAATTAAAAGAAGAGTTTATGTGAGACGGAGTCACCTAGTGCAG” the binding signal was 5080 fluorescence intensity (a.u.).
“TGAAATTTTATGCAATCATTGGGACACCATTAAATTTCATCGGAGTCACCTAGTGCAG” was tested, and the binding signal was 24900 fluorescence intensity (a.u.).
With “ATAATTTGTTCAACATAGCTTCATGCCTTCTCAGCTTCTCCGGAGTCACCTAGTGCAG” the binding signal was 3200 fluorescence intensity (a.u.).
In the case of “GGGGTAATTACAGTAAAACTAACATTTAATTATTGCAATACGGAGTCACCTAGTGCAG”, the binding signal is reported as 30700 fluorescence intensity (a.u.).
